“And” between values parts separate entries of the source, which are not always exact repeats. Equal values may be shown once. The campaign covered roughly 410,000 compounds. About 490 (0.12%) were called active. The shares of active, inactive and inconclusive entries below differ from those in the screen. The call rests on the fitted dose curve; in most records, active means well fitted inhibition curve with a large enough effect; inconclusive means small, poorly fitted or top-dose-only effect; inactive means flat fitted curve, though single readings scatter. Potencies of inconclusive entries are doubtful fits and often do not repeat.
target: pyruvate kinase (Trypanosoma brucei) (UniProt Q57TT1); experiment: qHTS of Trypanosoma Brucei Inhibitors; details: TbPYK enzyme, Kinase-Glo Plus ATP luminescence, 45 min; series mostly up to 76.8 µM; activity, negative = inhibition: at the top concentration; further: nearly all actives have a fitted effect of over 50% in size
Method in brief: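 T. brucei PYK with substrate was exposed to pin-transferred compounds across a concentration series, then started with 130 uM ADP (final). After 45 min at room temperature, Kinase-Glo Plus luminescence was read, normalized and curve-fitted.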
On the % scale 0 is the no-effect control and ±100 the full control effect; potency means the concentration at half of the fitted maximal effect; tags describe the fitted curve by direction and shape.

Structure (SMILES)	activity, negative = inhibition	Potency
CCN(CC)S(=O)(=O)c1cc(NC(=O)CN2C(=O)NC(C)(c3ccccc3)C2=O)ccc1C (stereo not given)	inactive: -6.98%	–
CC1(C(=O)NS(=O)(=O)c2cccs2)CCN1C(=O)c1ccccc1CCc1ccccc1 (stereo not given)	inactive: 7.46%	–
CC(C)(C)c1nnc(NC(=O)C2c3ccccc3Oc3ccccc32)s1	–	inconclusive: 5.62 µM [inhibitor, partial curve, poor fit]
Cc1cccc(NC(=O)CN2C(=O)N/C(=C/c3ccc(C)o3)C2=O)c1	–	inconclusive: 17.8 µM [inhibitor, partial curve, poor fit]
CC(C)Nc1ccc(Nc2ccccc2)cc1	–	inconclusive: 6.31 µM [inhibitor, partial curve] and inconclusive: 12.6 µM [inhibitor, partial curve, poor fit]
O=C(c1ccc2ncsc2c1)N1CCCCC1	–	inconclusive: 28.2 µM [inhibitor, partial curve]
COc1ccc(C(C2C(=O)CC(C)(C)CC2=O)C2C(=O)CC(C)(C)CC2=O)cc1	–	inconclusive: 31.6 µM [inhibitor, single point]
O=C(NCCc1ccc(Cl)cc1)Nc1ccc(Cl)cc1	inactive: -17.9%	–
Fc1ccc(-n2c(Cn3nnc4ccccc43)n[nH]c2=S)cc1	–	inconclusive: 20 µM [inhibitor, partial curve, poor fit]
Cc1ccc(-n2c(-c3cnccn3)n[nH]c2=S)c(Br)c1	–	inconclusive: 7.94 µM [inhibitor, partial curve, poor fit]
Cc1nc2ccccc2nc1-c1ccc([N+](=O)[O-])cc1	inactive: -1.13%	–
NS(=O)(=O)c1ccc(N=Nc2c[nH]c(=O)c(O)c2)cc1	–	inconclusive: 15.8 µM [inhibitor, partial curve, poor fit]
Cc1cc(C)c(NC(=O)c2cc(S(=O)(=O)NCCC3=CCCCC3)ccc2F)c(C)c1	inactive: -0.218%	–
Cc1occc1-c1n[nH]c(=S)n1CC(C)C	–	inconclusive: 14.1 µM [inhibitor, partial curve]
Fc1cccc(Cl)c1CNn1cn[nH]c1=S	–	inconclusive: 11.2 µM [inhibitor, partial curve, poor fit]
COc1ccc(OC)c(/C=N/n2c(COc3ccccc3)n[nH]c2=S)c1	–	inconclusive: 2 µM [inhibitor, partial curve, poor fit]
Clc1ccc2nc(-c3ccco3)c(Cc3ccccc3)n2c1	–	inconclusive: 28.2 µM [inhibitor, partial curve]
Cc1ccc(Cl)cc1N1CCN(C(=O)c2ccc3c(c2)N(Cc2ccccc2F)C(=O)c2ccccc2S3(=O)=O)CC1	inactive: -0.322%	–
O=C1NN(c2ccccc2)C(=O)/C1=C\c1coc2ccc(O)cc2c1=O	–	inconclusive: 50.1 µM [inhibitor, partial curve, poor fit]
CC(/C=N/n1c(-c2cc(C)[nH]n2)n[nH]c1=S)=C\c1ccco1	–	inconclusive: 1.12 µM [inhibitor, full curve]
O=c1[nH]c(=S)[nH]c(O)c1N=Nc1ccc2c(c1)OCCO2	–	inconclusive: 28.2 µM [inhibitor, single point]
O=C(O)c1ccc(N/N=C/c2ccc(F)c(F)c2)cc1	inactive: -1.04%	–
COc1ccc2[nH]c3c(c2c1)CCN=C3C	inactive: -7.3%	–
O=C(Nc1ccccc1)c1sc2cc(C(F)(F)F)cnc2c1-c1cccs1	–	inconclusive: 35.5 µM [inhibitor, single point]

Structure (SMILES)	activity, negative = inhibition	Potency
O=C(/C=C/c1ccco1)NCC1OCCc2ccccc21 (stereo not given)	–	inconclusive: 35.5 µM [inhibitor, partial curve, poor fit]
CN(C)c1ccc(C(=O)c2ccc(N(C)C)c(N)c2)cc1N	inactive: 2.51%	–
C=CCNc1nc(-c2ccc(O)c(C(N)=O)c2)cs1	–	inconclusive: 31.6 µM [inhibitor, single point]
COc1ccccc1NC(=O)NCc1ccco1	–	inconclusive: 39.8 µM [inhibitor, partial curve, poor fit]
Cc1occc1C(=O)N/N=C/c1ccc2c(c1)OCO2	–	inconclusive: 31.6 µM [inhibitor, partial curve, poor fit]
COc1ccc(N(CC(=O)Nc2ccc3c(c2)OCO3)S(=O)(=O)c2ccccc2)cc1	inactive: 1.96%	–
CC(C)C1Cc2c(sc3c2c(=O)n(-c2ccccc2)c2n[nH]c(=S)n32)CO1 (stereo not given)	–	inconclusive: 15.8 µM [inhibitor, partial curve]
CC(/C=N/NC(=S)Nc1cccc(S(=O)(=O)N(C)C)c1)c1ccccc1 (stereo not given)	–	inconclusive: 15.8 µM [inhibitor, partial curve, poor fit]
O=C(c1cn(CCOc2ccccc2F)c2ccccc12)C1CCCCC1	inactive: -2.08%	–
CCOC(=O)c1ccc(NC(=O)CSc2ccc(-c3sc(C)nc3C)nn2)cc1	inactive: -2.44%	–
Oc1ccccc1-c1n[nH]c(=S)n1Cc1ccccc1	–	inconclusive: 10 µM [inhibitor, partial curve]
N#Cc1ccc(CN2CC3(CCN(C(=O)c4cccc(F)c4)CC3)C2)cc1	inactive: 4.82%	–
COc1ccc(NC(=O)c2ccc(-c3ccc(C(C)=O)cc3)o2)cn1	inactive: 2.09%	–
CS(=O)(=O)c1ccc2c(c1)SC1=NC(=O)/C(=C/c3ccco3)C(=N)N12	–	inconclusive: 39.8 µM [inhibitor, single point]
Oc1cccc[c]1[Hg][Cl]	–	inconclusive: 3.55 µM [inhibitor, partial curve, poor fit]
S=c1[nH]nc(C2CCCCC2)n1/N=C/c1ccccc1Br	–	inconclusive: 31.6 µM [inhibitor, partial curve, poor fit]
CCC(C)Sc1c(C(C)C)cnc2c1c(=O)n(C)c(=O)n2C (stereo not given)	–	inconclusive: 17.8 µM [inhibitor, partial curve, poor fit]
Cc1cccc(C)c1Nc1n[nH]c(=S)s1	–	active: 12.6 µM
O=[N+]([O-])c1cccc(-c2n[nH]c(=S)n2-c2ccc(Br)cc2)c1	–	inconclusive: 7.08 µM [inhibitor, partial curve, poor fit]
Cc1[nH]n(-c2ccccc2)c(=S)c1C=Nc1ccc([N+](=O)[O-])cc1	–	active: 2.82 µM
O=C(NC(=S)NNC(=O)c1ccccc1[N+](=O)[O-])c1ccccc1	–	inconclusive: 39.8 µM [inhibitor, partial curve, poor fit]
C=C1C(=O)[C@@]23C[C@H]4[C@@H]5[C@@]6(C)CCC[C@@]57[C@@H]2[C@@H](O)[C@@H]1C[C@H]3[C@H]7N4C6	inactive: 0.766%	–
CC1(c2ccc(F)cc2)OC(=O)c2c1ccc1ccccc21 (stereo not given)	inactive: -15%	–
COc1cc(N(C)C)ccc1C=c1c2ccccc2n2c1cc(-c1ccccc1)[n+]2C	–	inconclusive: 22.4 µM [inhibitor, partial curve, poor fit]

Structure (SMILES)	activity, negative = inhibition	Potency
COc1ccc(OC)c(-n2c(O)c(C=Nc3c(C)n(C)n(-c4ccccc4)c3=O)c(=O)[nH]c2=S)c1	–	inconclusive: 14.1 µM [inhibitor, partial curve]
Cn1cc(S(=O)(=O)NCc2ccc3c(c2)OCO3)c(C(F)(F)F)n1	inactive: -3.38%	–
COC(=O)c1cccc(Nc2nn3c(=O)c4cc5c(cc4nc3s2)OCO5)c1	inactive: -2.52%	–
Nc1ccccc1SC(CC(=O)c1ccccc1)c1ccc([N+](=O)[O-])cc1 (stereo not given)	–	inconclusive: 14.1 µM [inhibitor, partial curve, poor fit]
C[n+]1cnc(-c2ccccc2)cc1-c1ccccc1	–	inconclusive: 31.6 µM [inhibitor, single point]
COc1ccc(N=Nc2cc(C)c(O)c(CN3CCCCC3)c2)cc1	inactive: 3%	–
COc1ccc(C(=O)/C=C/C(=O)N(CC(=O)NC2CCCCC2)CC2CCCO2)c(O)c1 (stereo not given)	–	inconclusive: 20 µM [inhibitor, partial curve, poor fit]
COC(=O)/C=c1\sc2ncnn2c1=O	–	inconclusive: 31.6 µM [inhibitor, partial curve, poor fit]
CCn1c(-c2sc(-c3ccccc3)nc2C)n[nH]c1=S	–	inconclusive: 2.82 µM [inhibitor, full curve, poor fit]
Cc1ccccc1CS(=O)(=O)c1cn(CC(=O)N2CCOCC2)c2ccccc12	–	inconclusive: 39.8 µM [inhibitor, partial curve]
Cc1ccc(-c2cc(C(=O)O)c3cc(Br)ccc3n2)o1	–	active: 10 µM
CC(=NNC(=O)c1ccncc1)c1cccc(Cl)c1	inactive: 0.865%	–
COc1cc(NC2=CC(=O)CC(C)(C)C2)cc(OC)c1	inactive: 3.3%	–
CCOC(=O)c1c(C)[nH]c(C(=O)NNC(=O)c2ccccc2)c1C	inactive: -4.67%	–
COC(=O)c1cnn(-c2ccc(Cl)cc2)c1/C=N/NC(N)=S	inactive: -3.01%	–
COc1cc(-n2c(-c3ccccc3)n[nH]c2=S)c(OC)cc1Cl	–	active: 3.55 µM
Cc1cccc(NC(=S)NNC(=O)c2csc3c2CCC(C)C3)c1 (stereo not given)	inactive: -12.1%	–
CCCC(=O)Nc1cc(S(=O)(=O)N2CCOCC2)ccc1N1CCCCC1	–	inconclusive: 6.31 µM [inhibitor, partial curve, poor fit]
COc1cc(/C=C/C(=O)Nc2nc3ccc(S(=O)(=O)N(C)C)cc3s2)cc(OC)c1OC	inactive: -4.26%	–
COc1ccc(CN(C)S(=O)(=O)c2nnc(NC(=O)c3cccc(C)c3)s2)cc1OC	–	inconclusive: 7.08 µM [inhibitor, partial curve, poor fit]
c1ccc2sc(SN3CCOCC3)nc2c1	–	inconclusive: 17.8 µM [inhibitor, partial curve]
CCC(C)N=C1Sc2nc3ccc(C)cc3cc2CN1CCOC (stereo not given)	–	inconclusive: 35.5 µM [inhibitor, single point]

From PubChem BioAssay AID624173 (National Center for Advancing Translational Sciences (NCATS), 2012)
